Measured values taken from PubChem BioAssay AID488969 (Vanderbilt High Throughput Screening Facility, 2010).
The full ranking holds about 110,000 compounds; the median of “z-score” is about -0.1, and the highest 2% start at about 2. Some of the results follow. Activity calls are given as the source filed them.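 Rule for the calls: active = z-score in the third read window above 3 or below -3; inactive = the rest.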

Molecular target: Metabotropic glutamate receptor 8 (Rattus norvegicus) (UniProt P70579)
Assay: mGluR8 Gi/Go-coupled signaling modulation – cell-based, rat, thallium flux, HTS, primary screen (AID 488969)
Settings: HEK293 rat mGluR8, GIRK (G protein-gated inwardly rectifying potassium channel) thallium flux, FluoZin2; at 10 µM; stronger effect = higher value; submaximal glutamate (EC20) added with thallium

Sequence of UniProt P70579 (P70579 whole entry, looked up): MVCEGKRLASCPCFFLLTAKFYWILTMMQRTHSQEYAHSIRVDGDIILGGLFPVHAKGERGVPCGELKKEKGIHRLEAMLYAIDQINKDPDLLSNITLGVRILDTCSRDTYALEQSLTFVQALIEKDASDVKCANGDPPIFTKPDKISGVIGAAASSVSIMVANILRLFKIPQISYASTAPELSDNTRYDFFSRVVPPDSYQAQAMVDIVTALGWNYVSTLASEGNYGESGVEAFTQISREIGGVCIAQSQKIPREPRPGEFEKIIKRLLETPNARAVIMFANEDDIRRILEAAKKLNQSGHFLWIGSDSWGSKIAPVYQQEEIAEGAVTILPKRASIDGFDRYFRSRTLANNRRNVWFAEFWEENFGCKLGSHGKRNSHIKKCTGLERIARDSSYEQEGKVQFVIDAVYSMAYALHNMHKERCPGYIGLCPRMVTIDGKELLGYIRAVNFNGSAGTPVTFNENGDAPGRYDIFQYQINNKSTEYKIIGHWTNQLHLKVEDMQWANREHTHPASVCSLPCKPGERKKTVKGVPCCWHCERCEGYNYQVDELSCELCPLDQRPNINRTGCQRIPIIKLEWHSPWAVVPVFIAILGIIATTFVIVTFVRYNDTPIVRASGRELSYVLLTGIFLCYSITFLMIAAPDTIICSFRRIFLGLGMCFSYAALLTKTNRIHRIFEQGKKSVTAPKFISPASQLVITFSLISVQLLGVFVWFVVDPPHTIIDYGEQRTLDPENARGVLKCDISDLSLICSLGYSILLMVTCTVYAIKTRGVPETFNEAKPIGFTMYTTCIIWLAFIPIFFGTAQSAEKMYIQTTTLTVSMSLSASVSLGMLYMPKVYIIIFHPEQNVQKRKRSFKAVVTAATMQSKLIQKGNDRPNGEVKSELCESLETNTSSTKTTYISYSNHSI

Compound	z-score
COc1ccc(N(CC(=O)Nc2ccccc2C(=O)NCc2ccco2)S(C)(=O)=O)cc1	0.24
O=C(Nc1ccc2c(c1)OCO2)c1cccc(S(=O)(=O)N2CCCC2)c1	0.0256
O=C1NC(=O)C(c2cn(-c3ccccc3)nc2-c2ccc(F)cc2)N1 (stereo unspecified)	-0.00714
Cc1cccc(C(=O)NC(=S)NNC(=O)c2ccc(Cl)cc2)c1	active: 6.22
O=C(NC1=NCCS1)c1cc(-c2ccc(-c3ccccc3)cc2)nc2ccccc12	-0.0857
CNC(C)c1cc(OC)ccc1OC (stereo unspecified)	-0.145
c1ccc(Nc2nc(N3CCCCC3)nc(N3CCNCC3)n2)cc1	1.8
COc1ccc(N2C(=O)C3CCCN3C2c2cccs2)cc1 (stereo unspecified)	0.246
Cn1c(=O)[nH]c2sc3c(c2c1=O)CC(C)(C)OC3	-0.263
CCCC12CN3CC(C)(CN(C1)C3c1ccc3c(c1)OCO3)C2=O (stereo unspecified)	1.26
CCOC(=O)N1CCC(N(CCCOC)C(=O)Nc2ccc(CC)cc2)CC1	0.0496
O=C(Nc1cccc(C(F)(F)F)c1)NC1CCCCC1	-0.422
Cc1c(NC(=O)CCCOc2ccccc2)cccc1[N+](=O)[O-]	-0.116
CCOC(=O)c1cc(NC(=O)N2CCCCC2)c(C)nc1C	-0.296
Cc1cc(N2C(=O)C3CC=CC(C)C3C2=O)no1 (stereo unspecified)	-1.13
Cc1ccc(NC(=O)CSc2nnc(-c3ccncc3)o2)cc1	0.17
Cc1ccc(SCC(=O)Nc2ccccc2C(=O)N2CCOCC2)cc1	-0.074
Cc1cc(C)nc(SCC(=O)N/N=C\c2sccc2C)n1	-0.153
O=C(COC(=O)c1ccc(Cl)s1)c1cc2ccccc2o1	0.321
CCOc1ccccc1NC(=O)Nc1c(C)n(-c2ccccc2)c(=O)n1C	0.382
CCc1nc2ccccc2[nH]1	0.00543
OCCOCCn1c(-c2ccccc2)nc(=S)c2c1CCCC2	0.333
CN1C(=O)c2ccc(NC(=O)c3ccc(N4CCCCC4)c([N+](=O)[O-])c3)cc2C1=O	-0.139
C=CCNC(=S)Nc1cc(Cl)ccc1OC	-0.117

Compound	z-score
COC(=O)c1c(NC(=O)c2ccc(Br)o2)sc(C)c1C	-0.47
Cc1ccc(/C=c2\sc3nc(-c4ccco4)nn3c2=O)o1	-1.53
Cn1nc(-c2ccccc2)c(CSc2cccc(Cl)c2)c1Cl	0.0135
CCc1ccc(NC(=O)N(C2CCC(C)CC2)C2CCN(C(C)=O)CC2)cc1 (stereo unspecified)	0.199
O=C(/C=C\c1ccco1)Nc1nc(-c2ccccc2)cs1	-0.146
Cn1c(SCCOc2ccccc2Cl)nnc1-c1ccncc1	-0.133
O=C1C2C3C=CC(C4CC34)C2C(=O)N1CCc1ccccc1 (stereo unspecified)	0.403
Clc1cccc(-c2cc3nc4c(c(NCc5ccco5)n3n2)CCCC4)c1	-0.169
Cc1oc2c(c1C(=O)c1ccc(Cl)cc1)C(=O)C(=O)c1ccccc1-2	0.323
O=C(O)c1cccc2cccnc12	-0.196
CCOC(=O)c1[nH]c2ccc(OCC)cc2c1NC(=O)CN1CCCC(C)C1 (stereo unspecified)	0.0702
O=C(O)[C@H](Cc1ccccc1)N1Cc2ccccc2C1=O	-0.186
Cc1cc(C)cc(OCC(=O)NCC2CCCO2)c1 (stereo unspecified)	1.08
CCN1CCCC1CNC(=O)c1ccccc1Cl (stereo unspecified)	-0.0729
O=C(NNc1nc2ccccc2nc1C(F)(F)F)c1ccccc1	2.44
Fc1ccc(/C=N/Nc2ccccn2)cc1	-0.0704
Cc1cccc(OCC(=O)NCc2ccncc2)c1C	1.61
Cc1ccc(Sc2c(C=O)c3ccccc3n2C)cc1	-0.314
CCC(CC)C(=O)NCCN1CCN(C(=O)C(CC)CC)CC1	0.112
N=c1n(Cc2ccccc2)c2ccccc2n1CC(O)c1ccccc1 (stereo unspecified)	0.899
CCCCNC(=O)Nc1cc(C)on1	0.265
Cc1cc(C(F)(F)F)nn1Cc1n[nH]c(=S)n1-c1ccc(Cl)cc1	-0.102
COc1cc(Nc2nc(-c3ccccc3)c3cc(C)ccc3n2)cc(OC)c1OC	-0.218
CCN1c2ccccc2NC2N=C(OC)C(c3ccccc3)C21 (stereo unspecified)	-0.615

Compound	z-score
C=C(C)CN1C(=O)c2ccccc2C1=O	0.241
CCNC(=S)NCc1ccc(Cl)cc1	0.000554
COc1ccc(C2=NOC(C(=O)NCc3ccc(F)cc3)C2)cc1OC (stereo unspecified)	-0.0539
CC1CC/C(=N/Nc2ccccc2)C(=O)N1 (stereo unspecified)	0.144
COc1cc(C(=O)NCc2cccc3ccccc23)ccc1OCc1ccccc1	-0.226
CCOc1ncccc1C(=O)OCC(=O)Nc1cc(C)ccc1C	-0.205
CCOc1ccc(C(=O)N(C)C2CCS(=O)(=O)C2)cc1 (stereo unspecified)	0.13
CC(C)N(Cc1ccccc1)C(=O)COC(=O)c1ccc2c(c1)OCCO2	-0.487
CC1(C)C(c2cccs2)=[N+]([O-])C2(CCCCC/C2=N\NC(N)=O)N1O (stereo unspecified)	-0.175
COc1cccc(N(C(=O)CCl)C(C(=O)NCCc2ccccc2)c2cccs2)c1 (stereo unspecified)	-0.237
CCOC(=O)C1=C(c2ccccc2)N=c2s/c(=C\c3ccco3)c(=O)n2C1c1cccs1 (stereo unspecified)	-0.0854
Cc1cc(C)n2cc(CSCc3ccccc3)nc2n1	1.06
O=C(N/N=C/c1ccc([N+](=O)[O-])o1)c1cc(-c2cccc(Br)c2)nc2ccccc12	-0.204
O=S(=O)(/N=C(/Nc1ccccc1)C(F)(F)F)c1ccccc1	-0.1
CCCc1c(C)nc2ccc(OC)cc2c1SCCC(=O)O	-0.193
O=c1c(C(c2ccc(O)cc2)c2c(O)nc3n(c2=O)CCCS3)c(O)nc2n1CCCS2	-0.799
CCCCN(C)CCCNC(=O)c1ccc(N2CCCC2=O)cc1	0.26
CCN(Cc1ccccc1)C(c1ccccn1)c1nnnn1C(C)(C)CC (stereo unspecified)	-0.194
Cc1[nH]ccc(=O)c1OCc1ccccc1	-0.0749
O=C(Cc1ccccc1)Nc1ccc(NC(=O)c2cccc(Cl)c2)cc1	-0.374
O=C(NCc1ccc2c(c1)OCO2)c1ccc(CN2CCc3ccccc3C2)cc1	-0.165
Cn1c(=O)c(=O)n(C)c2cc(S(=O)(=O)N3CCN(c4cccc(C(F)(F)F)c4)CC3)ccc21	-0.265
Cc1ccc(Oc2cc(C)nc(-c3ccccc3O)n2)cc1	0.181
COc1cc2c(cc1OC)-c1nnc(C)n1C1(CCCC1)C2	-0.0623

Compound	z-score
CCN(C(=O)c1ccnc(C(C)(C)C)c1)c1ccccc1	-0.245
CCCCCCn1c(CN2CCCC(C)C2)nc2c1c(=O)n(C)c(=O)n2C (stereo unspecified)	-0.779
CC(=O)N1c2c(cc(Br)cc2S(=O)(=O)N2CCN(c3ccccn3)CC2)CC1C (stereo unspecified)	0.0805
NC(=O)COC(=O)c1ccc(S(=O)(=O)N2CCCCCC2)cc1	-0.304
CC(NC(=O)c1cnc2n(c1=O)CCS2)c1ccccc1 (stereo unspecified)	-0.182
Cc1cnc(NC(=O)C2CCCO2)s1 (stereo unspecified)	-0.0828
CN(CCNC(=O)c1cn(C)c2ccc(S(=O)(=O)N(C)C)cc2c1=O)CCc1ccccc1	-0.328
CC(Oc1ccc(Cl)cc1Cl)C(=O)OCn1nnc2ccccc2c1=O (stereo unspecified)	-1.64
Cc1cc(C)c(NC(=O)C2CCN(c3cnccn3)CC2)c(C)c1	-0.306
Cc1cccc(/C=c2\s/c(=C\C(=O)C(C)(C)C)[nH]c2=O)c1	active: 9.35
Cc1cccc(-c2c3c(=O)n(C)c(=O)n(C)c3cn2C(C)C)c1	0.0615
CCC(=O)Nc1ccc(C(=O)N/N=C/c2cccnc2)cc1	-0.023
CNCc1ccccc1Sc1ccc(OC)c(OC)c1	0.3
COc1cc(OC)c(C2SCCN2S(=O)(=O)c2ccc(F)cc2)cc1OC (stereo unspecified)	-0.279
CCCCCCSc1nc2c(c(=O)[nH]c(=O)n2C)n1C	-0.259
Cc1ccc(C)c(NC(=O)CSc2ncnc3nc[nH]c23)c1	0.0633
O=C(NC(=S)Nc1ccc(CN2CCOCC2)cc1)c1cccc([N+](=O)[O-])c1	2.19
COc1ccc(NC(=O)c2ccco2)c([N+](=O)[O-])c1	-0.171
CC1CCCCC1NC(=O)CSc1nnnn1-c1ccccc1 (stereo unspecified)	0.0648
O=C(Nc1nc(-c2cc3ccccc3oc2=O)cs1)c1ccc(Br)o1	active: 13.7
CCOC(=O)c1cc(C#N)c(SCc2cccc3ccccc23)nc1C	0.231
Cc1nc2cc(C(=O)N3CCc4ccccc43)ccc2n1-c1ccc(F)c(F)c1	-0.827
CCCCNc1cc(=O)n(C)c(=O)[nH]1	-0.35
Cc1c(Cl)c([N+](=O)[O-])nn1CCCC(=O)Nc1cccc(Cl)c1	-2.13

Compound	z-score
COCCn1c(-c2ccccc2)nc2oc3cc(OC)ccc3c(=O)c2c1=O	0.0224
N#Cc1cnn2cc(-c3ncc(C(F)(F)F)cc3Cl)cnc12	0.0881
O=C(Nc1ccccc1)c1ccc2nc(-c3ccco3)c(-c3ccco3)nc2c1	0.011
Cc1ccc2nc(Cl)c(C3CC(c4cccs4)=NN3C(=O)CCCC(=O)O)cc2c1 (stereo unspecified)	-0.0637
C=CCOc1nc2c(c(=O)n(C)c(=O)n2C)n1Cc1ccccc1Cl	-1.74
O=C(CCc1ccc(S(=O)(=O)NCc2ccccc2)cc1)N1CCN(Cc2ccc3c(c2)OCO3)CC1	0.0321
O=C1c2ccccc2C(=O)N1C/C=C/c1ccccc1	0.449
Cc1c(N=C/C=C/c2ccccc2)cnn1C	0.563
CCn1c(C)cs/c1=N\C(=S)Nc1ccccc1C	-1.3
CCOc1cc(C2/C(=C(\O)c3cc(C)ccc3C)C(=O)C(=O)N2CCN(C)C)ccc1O (stereo unspecified)	0.0564
Cc1ccc(OCc2nnc(NC(=O)c3ccco3)s2)cc1	-0.0697
Cc1cccc(C)c1OCC(O)CN (stereo unspecified)	-0.434
CCc1ccc2oc(=O)cc(CN3CCOCC3)c2c1	-0.453
Cc1ccc(CNC(=O)CN(Cc2cccs2)C(=O)C2(C)CC(=O)N=C3C=CC=CN32)cc1 (stereo unspecified)	-0.114
CC1CC(C)CN(C(=S)Nc2ccc3nc4n(c(=O)c3c2)CCCCC4)C1 (stereo unspecified)	-0.417
COC(=O)c1[nH]c2cccc(Cl)c2c1NC(=O)CN1CCN(CCO)CC1	-0.183
COc1cc(C=O)ccc1OCCCOc1ccccc1[N+](=O)[O-]	-0.16
O=C(NCc1ccc(Cl)cc1)c1cc2ccccn2n1	-0.516
C=CCC1C=CCC(CC=C)N1C(=O)c1ccccc1[N+](=O)[O-] (stereo unspecified)	-0.378
CCOC(=O)/C(C#N)=C\c1ccc(N2CCN(C/C=C/c3ccccc3)CC2)cc1	-0.322
